Laboratory results reported in ChEMBL document CHEMBL5247649, “Comparative Efficacy and Selectivity of Pharmacological Inhibitors of DYRK and CLK Protein Kinases” (J Med Chem, 2023).

Tests used:
[1] = target: T1, Dual specificity tyrosine-phosphorylation-regulated kinase 1B (Homo sapiens, UniProt Q9Y463); experiment: biochemical; format: cell-based, Sf9
[2] = target: T1, Dual specificity tyrosine-phosphorylation-regulated kinase 1B; experiment: biochemical; format: cell-based, Sf9; remark: listed apart in the source
in vitro = conditions: mouse, ht-22

T1 sequence (Q9Y463 whole entry): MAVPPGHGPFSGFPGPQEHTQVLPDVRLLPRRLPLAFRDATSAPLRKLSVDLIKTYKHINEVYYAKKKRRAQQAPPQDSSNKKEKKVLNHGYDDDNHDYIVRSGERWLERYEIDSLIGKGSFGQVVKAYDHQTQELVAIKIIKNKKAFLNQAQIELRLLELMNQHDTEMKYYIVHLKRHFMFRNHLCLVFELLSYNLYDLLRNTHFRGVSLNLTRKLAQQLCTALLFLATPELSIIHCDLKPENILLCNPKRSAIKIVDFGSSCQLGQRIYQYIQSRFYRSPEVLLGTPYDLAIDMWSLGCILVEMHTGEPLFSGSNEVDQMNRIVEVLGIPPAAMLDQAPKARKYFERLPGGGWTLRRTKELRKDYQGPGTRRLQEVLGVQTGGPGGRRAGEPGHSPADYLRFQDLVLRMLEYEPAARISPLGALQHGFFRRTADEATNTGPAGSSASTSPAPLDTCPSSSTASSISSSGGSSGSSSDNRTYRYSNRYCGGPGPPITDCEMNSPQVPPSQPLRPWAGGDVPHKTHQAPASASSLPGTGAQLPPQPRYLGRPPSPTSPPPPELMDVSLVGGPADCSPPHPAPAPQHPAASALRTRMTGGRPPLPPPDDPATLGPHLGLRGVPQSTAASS

SMILES	IC50 [1] [nM]	IC50 [2] [nM]	IC50 at 48 h (in vitro) [nM]
COc1ccc(/C=C2\SC(=S)NC2=O)cc1C#C[Si](C)(C)C	> 10000	–	–
O=C(O)c1nc2ccccc2c2[nH]c3c(I)cccc3c12	4410	7.7	–
O=C1Nc2cc(S(=O)(=O)Cc3c(Cl)cccc3Cl)ccc2S/C1=C\c1ccc(O)c([N+](=O)[O-])c1	2240	–	–
CN1Cc2nn(C)c(C#N)c2-c2cnc3[nH]c(F)c(c3c2)-c2cn(nc2C(F)(F)F)CCCC1=O	3010	367	–
Cc1ccc([N+](=O)[O-])cc1S(=O)(=O)N(C)/N=C/c1cnc2ccc(Br)cn12	3.7	3.4	–
CC(=O)c1nccc2c1[nH]c1ccccc12	> 10000	–	–
O=C1NC(=Nc2c(Cl)cccc2Cl)S/C1=C\c1ccc2nccnc2c1	40.6	5.4	–
CN(C)c1nccc(-c2cnn3ncccc23)n1	236	–	–
Cn1cc(-c2ccc3cnc(NC(=O)C4CCN(S(C)(=O)=O)CC4)cc3c2)cn1	10.1	4.8	–
CCOc1ccc2nc(N3CCCN(C(=S)Nc4ccccc4F)CC3)c(C#N)cc2c1	> 10000	–	–
COC1=CC2C(=O)NC3=Cc4ccc(OC)cc4C(=C1OC)C32 (stereo not given)	17.4	25.5	–
O=C(O[C@@H]1Cc2c(O)cc(O)cc2O[C@@H]1c1cc(O)c(O)c(O)c1)c1cc(O)c(O)c(O)c1 [EPIGALOCATECHIN GALLATE]	714	> 10000	–
COc1cc(N2CCN(C)CC2)ccc1Nc1nccc(-c2cn(C)c3cnccc23)n1	17.9	8.3	–
c1cc(OCCN2CCCCC2)cc(-c2n[nH]c3ccc(-c4nc[nH]n4)cc23)c1 [CC-401]	250	218	–
Cc1cc(C(=O)NC2Nc3cccc(C)c3N2[C@H]2CCCCN(C(=O)/C=C/CN(C)C)C2)ccn1 (stereo not given in full)	> 10000	–	–
CCN1/C(=C/C(C)=O)Sc2ccc(O)cc21	189	–	–
CCN1CCN(Cc2ccc(Nc3ncc(F)c(-c4cc(F)c5nc(C)n(C(C)C)c5c4)n3)nc2)CC1 [ABEMACICLIB]	3.5	12.8	–
CN1CCN(C(=O)C(C)(C)c2ccc(C(=O)Cc3cn4cc(-c5ccncc5)ccc4n3)cc2)CC1	681	364	–
O=c1c2c(O)cc(O)cc2oc2c(O)ccc(O)c12 [DEMETHYLBELLIDIFOLIN]	268	–	–

SMILES	IC50 [1] [nM]	IC50 [2] [nM]	IC50 at 48 h (in vitro) [nM]
CC(C)Oc1ccc(F)c(-c2cnc(N)c(C(=O)Nc3cnccc3N3CCC[C@@H](C(=O)O)C3)n2)c1	5	11.9	–
COc1ccc2c(c1)[nH]c1c(C)nccc12 [HARMINE]	293	94	–
CC(C)CN1CCC(C(=O)Nc2cc3cc(-c4cnn(C)c4)ccc3cn2)CC1	15.2	9.7	–
CCNc1cc(Nc2ccc(C(=O)N3CCC(N4CCOCC4)CC3)cc2OC)nc2[nH]cc(C(F)(F)F)c12	80.5	104	–
O=C1NC(NC2CCCCCC2)=N/C1=C\c1ccc2ncsc2c1	–	–	10800
COc1ccc2c3ccnc(Cl)c3n(CC#N)c2c1	185	38.4	–
O=C(Nc1ccc2[nH]ncc2c1)c1csc(Nc2ccccc2)n1	384	2800	–
Cc1cccc(N(C)c2nccc(-c3cnn4ncccc34)n2)c1	317	–	–
Oc1ccc(-c2cnc3[nH]cc(-c4ccc(F)cc4)c3c2)cc1O	56.8	64.4	–
Oc1ccc(-c2n[nH]c3ncc(-c4ccc(O)c(O)c4)cc23)cc1	5.9	23.9	–
COc1cc(CCc2c(O)ccc(O[C@@H]3O[C@H](CO)[C@@H](O)[C@H](O)[C@H]3O)c2C(C)=O)ccc1O [SCORZODIHYDROSTILBENE A]	> 10000	–	–
CC(C)(c1ccc(O)cc1)c1ccc(O)cc1 [BISPHENOL A]	> 10000	–	–
c1ccc(CNc2nc(Nc3cc(C4CC4)[nH]n3)c3sccc3n2)cc1	1270	1140	–
COc1ccc2sc(-c3cncc(NC(C)=O)c3)nc2c1	1730	405	–
CCN(CC)Cc1ccc(OC)c(-c2cc3c(-c4ccc(C(=O)O)c(C(C)C)c4)ccnc3[nH]2)c1	3500	–	–
Cn1cc(-c2ccc3occ(-c4cccc(-c5ccncc5)c4)c3n2)cn1	1730	–	–
c1ccc(-c2ccc3[nH]ncc3c2)cc1	350	53.5	–
COc1cc(/C=C/C(=O)CC(=O)/C=C/c2ccc(O)c(OC)c2)ccc1O [CURCUMIN]	> 10000	148	–
